Laboratory results from PubChem BioAssay AID651711 (Broad Institute, 2012).
The whole screen tested about 350,000 compounds, of which about 180 (0.051%) were called active. The inconclusive results got no clear call from the source; some entries with a clear call stand among them for comparison.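 Rule for the calls: active = mean replicate inhibition above about 25%, with every replicate also reaching it (limit read from the data, passing the limit was not always enough); inconclusive = only one of those two criteria met; inactive = neither criterion met.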 More than one record can exist for a structure, and the calls need not agree.

target: Protein disulfide-isomerase A6 (Homo sapiens) (UniProt Q15084); experiment: inhibitors of ERp5-driven insulin aggregation, primary screen, biochemical, turbidity, absorbance 650 nm, single point (AID 651711); conditions: 90 min, at 9.99 µM, active compounds read high
Sequence of UniProt Q15084 (Q15084 whole entry, looked up): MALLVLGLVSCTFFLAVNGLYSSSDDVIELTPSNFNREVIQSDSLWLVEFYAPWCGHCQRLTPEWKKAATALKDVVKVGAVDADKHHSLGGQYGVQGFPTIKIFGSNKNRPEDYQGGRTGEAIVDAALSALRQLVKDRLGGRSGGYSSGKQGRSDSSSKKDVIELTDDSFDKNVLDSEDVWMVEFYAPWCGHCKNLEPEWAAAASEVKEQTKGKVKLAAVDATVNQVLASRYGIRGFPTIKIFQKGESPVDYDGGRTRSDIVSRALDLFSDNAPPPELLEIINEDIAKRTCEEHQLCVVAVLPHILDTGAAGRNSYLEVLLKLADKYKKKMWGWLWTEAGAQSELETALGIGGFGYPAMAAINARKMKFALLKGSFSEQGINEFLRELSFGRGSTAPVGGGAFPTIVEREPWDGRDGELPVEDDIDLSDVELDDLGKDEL

Structure (SMILES) | inhibition
CCc1ccc2c(CN3CCOCC3)cc(=O)oc2c1 | inconclusive: 46%
COc1ccc(C(C(=O)NC2CCCC2)N2CCc3ccccc32)cc1 (stereo not given) | inconclusive: 38.7%
O=C(Nc1cccnc1)c1sc(Nc2ccccc2)nc1-c1ccccc1 | inconclusive: 42.1%
Cc1cc(C(=O)NC2CCCCC2)on1 | inconclusive: 30.1%
CCOC(=O)CCC(NC(=O)CC(=O)NC(CCC(=O)OCC)C(=O)OCC)C(=O)OCC (stereo not given) | inconclusive: 35.6%
c1ccc2c(c1)nnn2CNc1nccs1 | inconclusive: 36.2%
Cc1cc(C)c2c(N)c(C(=O)NN)sc2n1 | inconclusive: 38.4%
COc1ccccc1CC(=O)Nc1cccc(C(=O)NN2C(=O)c3ccccc3C2=O)c1 | inconclusive: 47.1%
CC(=O)Nc1ccc2c(c1)C(=O)N(C)[C@H]1CC[C@@H](CC(=O)NCC3CC3)O[C@H]1CO2 | active: 39.3%
COc1ccc(NC(=O)N[C@@H](CCSC)C(=O)O)cc1OC | inactive: -5.84%
C[C@H](NC(=O)C[C@H]1C=C[C@H](NC(=O)Cc2ccccn2)[C@@H](CO)O1)c1ccccc1 | inactive: 0.116%
O=C(O)CNC(=O)c1ccccc1 | inconclusive: 43.2%
C=CCC(CC=C)(NC(=O)c1cccc(C)c1)c1ccccc1 | inconclusive: 33%
CCN(CC)C(=O)CSc1nc(Cc2ccccc2)nc2ccccc12 | inactive: 4.53%
COCCN(C(=S)Nc1ccccc1OC)C(C)c1cccs1 (stereo not given) | inconclusive: 35.6%
Cc1ccc(S(=O)(=O)N2CCC(=O)N(CCO)CC2)cc1 | inconclusive: 45.7%
Cc1ccc(NC(=S)NNC(=O)CSc2nnc(-c3ccc(Cl)cc3)n2C2CCCCC2)cc1 | inconclusive: 46.4%
COc1ccc(N(CC(=O)Nc2cccc(C(C)=O)c2)S(=O)(=O)c2ccc(NC(C)=O)cc2)cc1 | inactive: 1.51%
COC(=O)C1=NNC(C(=O)c2ccco2)C1c1ccc(OC)cc1 (stereo not given) | inconclusive: 43.9%
Cc1cc(/C=C2\SC(=S)NC2=O)c(C)n1-c1cccc(O)c1 | inconclusive: 36.3%
COC(=O)[C@]1(C)N[C@H](CN(C)S(=O)(=O)c2ccc(F)cc2)[C@@H]2C(=O)N(Cc3ccccc3)C(=O)[C@@H]21 | inactive: -0.765%
O=C(N[C@@H]1CC[C@H](CCNC(=O)c2ccccc2F)O[C@H]1CO)c1ccc2c(c1)OCO2 | inactive: -14.7%
C[C@H]1CN([C@@H](C)CO)C(=O)Cc2cc(NC(=O)c3ccncc3)ccc2O[C@H]1CN(C)S(=O)(=O)c1cn(C)cn1 | active: 74.4%
Cc1nc(C)n(CC(=O)N2CCCC(C(=O)c3ccc(C(F)(F)F)cc3)C2)n1 (stereo not given) | inconclusive: 46.6%
CC[n+]1c(/C=C/N(C)c2ccccc2)oc2ccccc21 | inconclusive: 40.6%
Cc1ccccc1C(=O)Nc1nnc(CC(=O)N/N=C/c2ccco2)s1 | inconclusive: 41.7%
C[C@@H]1CN([C@H](C)CO)S(=O)(=O)c2ccc(/C=C/c3ccccc3)cc2O[C@H]1CN(C)C(=O)Nc1cc(F)ccc1F | inactive: -2.26%

Structure (SMILES) | inhibition
CNc1nc2cc([N+](=O)[O-])c([N+](=O)[O-])cc2nc1NC | inconclusive: 39.5%
CCCCC1=CC2=CC(=O)C(C)(OC(=O)CC)C(=O)C2=CN1C1CCCC1 (stereo not given) | inconclusive: 28.3%
COc1ccccc1-c1ccc2c(c1)C(C)(Cc1ccc(Cl)cc1)C(=O)N2 (stereo not given) | inactive: -1.12%
COc1cc(C(=O)Nc2sc(C)c(C)c2C(=O)O)cc(OC)c1OC | inconclusive: 43.7%
Cc1ccc(O)c(/C=N/NC(=O)c2[nH]ncc2Br)c1 | inconclusive: 31.7%
CCOC(=O)CN(C(=O)CSc1nnc(COc2ccc(OC)cc2)n1CC)c1ccccc1 | inactive: 4.54%
CNCc1sccc1C | inconclusive: 31.3%
CCN1[C@H](C(=O)NC2CCC2)[C@@H](CO)[C@@H]2Cn3c(ccc(-c4ccc(OC)cc4)c3=O)[C@@H]21 | inconclusive: 25.1%
N#C[C@@H]1[C@H](c2ccccc2-c2ccccc2)[C@H](CO)N1C(=O)NC1CCCCC1 | inactive: -1.59%
CCCOc1nc2c(c(=O)n(C)c(=O)n2C)n1CCC | inconclusive: 41%
Nc1ccc(S(=O)(=O)O)cn1 | inconclusive: 36.7%
Cc1ccc(S(=O)(=O)N2C[C@@H](O)COC[C@H]3O[C@H](CC(=O)N[C@H]4CCN(Cc5ccccc5)C4)CC[C@@H]32)cc1 | inactive: 4.36%
O=c1cc(CSc2nc(NCc3ccccc3)c3ccccc3n2)nc2ccc(Cl)cn12 | inconclusive: 38.3%
O=C(Nc1nc(-c2ccccc2)cs1)C1CCCCN1S(=O)(=O)c1ccccc1 (stereo not given) | inconclusive: 30.7%
COc1ccc(CCNC(=O)COC(=O)C2CC2C)cc1 (stereo not given) | inconclusive: 45.8%
Cc1ccc(NS(=O)(=O)c2cccc3nsnc23)cc1 | inconclusive: 30.6%
COc1ccccc1-c1nnc(SCC(=O)NC2CCS(=O)(=O)C2)n1N (stereo not given) | inconclusive: 38.8%
COc1ccc(Cl)cc1NC(=O)C/C(C)=N/NC(=O)Cc1ccccc1 | inconclusive: 58.1%
CCc1ccc(Nc2n[n+](C)c(-c3ccncc3)s2)cc1 | inconclusive: 52.4%
COC(=O)C(F)(F)Sc1c(C)[nH]c2ccccc12 | inconclusive: 30.6%
Cc1ccc(NC(=O)N(CCCN2CCOCC2)Cc2cccnc2)cc1C | inconclusive: 54.6%
C[C@H]1CN([C@@H](C)CO)C(=O)c2cccc(NC(=O)Nc3ccc4c(c3)OCO4)c2O[C@H]1CN(C)S(=O)(=O)c1ccc(Cl)cc1 | inactive: 2.84%
CC(C)NC(=O)N(C)C[C@H]1OCCCC[C@@H](C)Oc2ccc(NC(=O)c3ccccc3)cc2C(=O)N([C@H](C)CO)C[C@@H]1C | inactive: 2.81%
CCOC(=O)/C(C#N)=C/c1cn(CCC(=O)O)nc1-c1ccc(Cl)cc1 | inconclusive: 38.7%
O=C(CN1C(=O)/C(=C/c2cccc(Br)c2)SC1=S)N1CCCC1 | inconclusive: 52.1%
O=C(C[C@H]1CC[C@H]2[C@@H](COC[C@@H](O)CN2C(=O)c2ccccc2)O1)Nc1ccccc1 | inactive: -1.32%
COCC#Cc1ccc([C@@H]2[C@@H](CO)N3C(=O)CN(C(=O)CN4CCOCC4)C[C@H]23)cc1 | inconclusive: 27.5%

Structure (SMILES) | inhibition
N#CC(Cc1ccccc1OC(F)F)c1nc2ccccc2[nH]1 (stereo not given) | inactive: 0.124%
COc1ccc(C[C@@H]2CCn3cc(nn3)COC[C@H](CC(C)C)NC2=O)cc1 | inactive: -4.65%
C[C@@H]1CN([C@@H](C)CO)C(=O)c2cc(NS(=O)(=O)c3ccccc3)ccc2O[C@H]1CN(C)C(=O)NC1CCCCC1 | inactive: -0.0715%
Cc1noc(C)c1S(=O)(=O)Nc1cccc2c1O[C@H](CN(C)C(=O)Nc1ccc(C(F)(F)F)cc1)[C@H](C)CN([C@@H](C)CO)C2=O | active: 62.8%
N#C/C(=C\c1ccc(F)cc1)c1nc(-c2ccco2)cs1 | inconclusive: 43.6%
CC(OC(=O)CC1CC2CCC1C2)C(=O)Nc1ccc(N2CCOCC2)cc1 (stereo not given) | inconclusive: 44.2%
O=C(CSc1nnc(NC(=O)c2ccccc2C(=O)O)s1)Nc1ccccc1Cl | inconclusive: 34.2%
Cc1cc(C)nc(Nc2nc(C(N)Cc3ccccc3)cs2)n1 (stereo not given) | inconclusive: 49.7%
Cc1ccc(S(=O)(=O)N(C)C[C@@H]2Oc3ccc(NC(=O)C4CCCCC4)cc3CC(=O)N([C@@H](C)CO)C[C@@H]2C)cc1 | inactive: -2.52%
CCCCNC(=O)CSc1nnc(Cc2ccccc2)n1CC1CCCO1 (stereo not given) | inconclusive: 36.6%
CCOC(=O)c1c(C)[nH]c(C(=O)CN2C(=O)NC(C)(CC(C)C)C2=O)c1C (stereo not given) | inactive: -2.22%
CC(C)(C)c1cc(=O)[nH]c(SCc2ccccc2Cl)n1 | inconclusive: 38.2%
COCCOC(=O)c1c(NC(=O)CN(C)c2ccccc2)sc(C(N)=O)c1C | inconclusive: 36.6%
CCN(CC(=O)NCCCn1ccnc1)S(=O)(=O)c1ccc(C)cc1 | inconclusive: 27.8%
Cc1cccc(S(=O)(=O)N2C[C@@H]3N[C@H](C2)C3c2ccc(-c3cccnc3)cc2)c1 (stereo not given in full) | inconclusive: 27.9%
Cc1ccc(S(=O)(=O)Nc2ccc3c(c2)C(=O)N([C@@H](C)CO)C[C@@H](C)[C@H](CN(C)C(=O)NC2CCCCC2)OCCCC[C@H](C)O3)cc1 | inactive: -7.69%
Cc1noc(C)c1NC(=O)N(C)C[C@H]1Oc2ccc(NC(=O)c3ccncc3)cc2C(=O)N([C@H](C)CO)C[C@@H]1C | active: 27.6%
C[C@@H]1CN([C@H](C)CO)C(=O)c2cc(NC(=O)Nc3ccc(C(F)(F)F)cc3)ccc2O[C@H]1CN(C)C(=O)Nc1ccc(C(F)(F)F)cc1 | inconclusive: 30.1%
CCC(C)(C)C1CCC(=NNS(=O)(=O)c2ccc(C)c([N+](=O)[O-])c2)CC1 (stereo not given) | inconclusive: 41.8%
CC1(c2ccccc2Cl)NC(=O)N(CC(=O)Nc2ccc3c(c2)OCO3)C1=O (stereo not given) | inconclusive: 45.1%
C/C(=N/NC(=O)c1ccncc1)c1cc2ccc(O)cc2oc1=O | inactive: 0.952%
Cn1ccnc1CC(O)(c1ccccc1)c1ccccc1 | inactive: 0.729%
CCN(CC)CCN(C(=O)c1ccc2c(c1)CCCC2)c1nc2ccc(F)cc2s1 | inconclusive: 41.3%
COc1ccc(C)cc1NC(=O)c1ccc2c(SCC(=O)O)c3c(nc2c1)CCCC3 | inconclusive: 36.2%
Cc1ccc(NC(=O)Nc2ccnc(-c3cccnc3)n2)cc1 | inactive: 2.75%
COCC(=O)N(C)C[C@H]1Oc2cc(C#CC(C)(C)O)ccc2S(=O)(=O)N([C@@H](C)CO)C[C@H]1C | active: 68.2%
